# Laboratory results from PMC4336329 (PLoS ONE, 2015).
# In all, about 310,000 compounds went through this assay and about 2,200 (0.71%) showed an effect of 50% or more. Effects have a minus sign here. The list shows a part of the results.
# Molecular target: human ether-à-go-go-related gene (hERG) potassium channel (human, UniProt Q12809)
# Assay: primary screen, population patch clamp on CHO cells stably expressing hERG
# Chain of human ether-à-go-go-related gene (hERG) potassium channel (Q12809 whole entry, looked up): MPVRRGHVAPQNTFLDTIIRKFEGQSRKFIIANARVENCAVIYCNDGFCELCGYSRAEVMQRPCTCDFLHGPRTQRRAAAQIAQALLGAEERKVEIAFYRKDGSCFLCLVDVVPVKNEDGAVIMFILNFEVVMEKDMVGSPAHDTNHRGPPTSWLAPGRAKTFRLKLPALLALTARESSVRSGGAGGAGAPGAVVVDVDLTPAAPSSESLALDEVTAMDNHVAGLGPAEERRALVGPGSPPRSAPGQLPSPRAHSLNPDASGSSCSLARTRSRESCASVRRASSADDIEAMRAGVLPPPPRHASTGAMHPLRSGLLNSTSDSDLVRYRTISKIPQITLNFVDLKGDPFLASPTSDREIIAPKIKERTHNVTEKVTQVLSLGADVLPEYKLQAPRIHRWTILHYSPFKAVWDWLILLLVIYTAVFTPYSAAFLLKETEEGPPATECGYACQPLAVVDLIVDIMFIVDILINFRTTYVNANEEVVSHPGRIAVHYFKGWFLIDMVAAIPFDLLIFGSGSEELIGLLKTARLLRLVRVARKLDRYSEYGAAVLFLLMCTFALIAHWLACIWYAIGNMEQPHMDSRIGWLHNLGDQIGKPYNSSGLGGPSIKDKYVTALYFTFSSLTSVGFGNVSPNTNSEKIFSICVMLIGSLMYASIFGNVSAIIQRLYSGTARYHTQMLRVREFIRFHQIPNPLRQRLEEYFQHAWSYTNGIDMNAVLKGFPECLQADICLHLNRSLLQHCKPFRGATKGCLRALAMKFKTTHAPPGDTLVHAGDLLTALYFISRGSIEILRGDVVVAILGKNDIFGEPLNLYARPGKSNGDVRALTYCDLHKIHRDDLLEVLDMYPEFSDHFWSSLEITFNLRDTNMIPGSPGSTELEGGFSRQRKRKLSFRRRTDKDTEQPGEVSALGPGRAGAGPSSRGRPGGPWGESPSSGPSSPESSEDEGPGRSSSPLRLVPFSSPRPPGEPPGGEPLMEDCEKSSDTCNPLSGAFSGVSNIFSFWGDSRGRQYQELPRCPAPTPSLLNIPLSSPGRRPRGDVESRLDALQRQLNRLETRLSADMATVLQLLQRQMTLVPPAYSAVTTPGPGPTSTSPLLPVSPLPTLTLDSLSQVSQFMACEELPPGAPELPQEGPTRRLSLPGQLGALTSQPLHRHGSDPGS
row,Compound,"hERG current change (%, negative = inhibition) at 1uM [%]"
1,CCCCCn1c(SCC#N)nc2cc(C(=O)NCC3CCCO3)ccc2c1=O (stereo not shown),-9.04
2,c1ccc2sc(NC3=NCCN3)nc2c1,-4.67
3,COc1ccc(OC)c(-c2csc(NC(=O)c3ccc(F)cc3)n2)c1,4.66
4,CCOC(=O)N1CCC(N2CCCC(C(=O)c3ccccc3OC)C2)CC1 (stereo not shown),-59.3
5,O=S1(=O)CCN(C(CO)c2ccccc2)CC1 (stereo not shown),12.4
6,CCOC(=O)C1=C(c2ccccc2)OC(N)=C(C#N)C1c1ccc(Br)s1 (stereo not shown),11.8
7,Cn1nnnc1SCC1=C(C(=O)O)N2C(=O)C(NC(=O)C3CC3c3ccccc3)C2SC1 (stereo not shown),20.1
8,O=S(=O)(N/N=C\c1ccc(-c2ccccc2Cl)o1)c1ccccc1,2.34
9,COc1ccc(N2CCN(Cc3cc(=O)c(OCC(=O)NC4CCCC4)co3)CC2)cc1,3.94
10,CCN(CC)c1ccc(/C=N/NC(=O)c2c(Cl)cnn2C)c(O)c1,12.7
11,O=C(CC1NCCc2ccccc21)Nc1ccccc1Cl (stereo not shown),12.4
12,COc1ccc(OCCC(=O)OCC(=O)NCc2ccc(F)cc2)cc1,13.7
13,COCCCNC(=O)CCn1c(=O)c2ccccc2n(CC(=O)Nc2c(C)cccc2C)c1=O,13.7
14,CCOC(=O)c1ccc(-n2nc(C)cc2C)cc1,3.64
15,O=C(O)Cc1c[nH]c2ccc(O)cc12,12.6
16,CCOC(=O)C(NC(=O)CC)(Nc1ccc(S(=O)(=O)Nc2onc(C)c2C)cc1)C(F)(F)F (stereo not shown),12.7
17,O=C(CCl)NCCNC(=O)c1cc(OCC(F)(F)F)ccc1OCC(F)(F)F,-0.848
18,COCCN(CCOC)S(=O)(=O)c1ccc(C(=O)Nc2nc(-c3ccncc3)cs2)cc1,3.68
19,Cc1ccc(OCC(=O)Nc2cc(NC(=O)COc3ccc(C)c(C)c3)cc(C(=O)O)c2)cc1C,14.2
20,CSC1=C(C#N)C(=O)NC(c2ccc(Cl)cc2)S1 (stereo not shown),12.9
21,CCOc1ccc(S(=O)(=O)NCCCN2CCCC2=O)cc1,14.3
22,O=C(CSc1nnc(NC(=O)C2CCC2)s1)Nc1ccccc1Br,2.61
23,CCOc1ccc(/C=C2/SC(=S)N(n3c(C)ccc3C)C2=O)cc1,10.1
24,CC(NC(=O)Nc1nnc(C(F)(F)F)s1)(C(F)(F)F)C(F)(F)F,0.76
25,S=c1[nH]c2cc(Br)cnc2[nH]1,18.2
